# PubChem BioAssay AID1347120 (National Center for Advancing Translational Sciences (NCATS), 2019)
# Screen size: about 390,000 compounds; about 930 (0.24%) were called active. The inconclusive results got no clear call from the source; some entries with a clear call stand among them for comparison. Calls follow the shape of the dose curve; as a rule, active = well fitted activation curve with a large enough effect; inconclusive = small, poorly fitted or top-dose-only effect; inactive = no such curve, though single readings can be large or run the other way. A potency beside an inconclusive call is a rough fit, not a confirmed value.
# Assay: qHTS for Suppressors of FUS Proteinopathy: Primary screen using FUS-linked yeast assay; also: nearly all actives have a fitted effect of over 55% in size
# Settings: S. cerevisiae FUS-expressing, OD600, 24 h; Potency: growth rescue; series mostly up to 76.6 µM
# How it was run: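 Steps: raffinose overnight preculture; dilution to OD 0.005 in 2% galactose minimal medium; compound addition (concentration series); 24hr at 30C, 99% humidity; absorbance read at 600 nm.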
# Potency is read from the fitted curve at half-maximal effect; tags tell the direction and shape of the fitted curve.
row,Compound,Potency
1,O=C(Cc1sc(Nc2ccccc2)nc1-c1ccccc1)NCc1ccccc1,"inconclusive: 12.6 µM [activator, partial curve]"
2,COc1ccc(N2Cc3cccc(C(=O)O)c3C2=O)cc1,"inconclusive: 3.16 µM [activator, full curve]"
3,CCN(CC(=O)Nc1ccccc1OC)C(=O)CCOc1ccc(C(C)(C)C)cc1,"inconclusive: 20 µM [activator, partial curve]"
4,CN(C(=O)COC(=O)CSc1ccccc1)c1c(N)n(Cc2ccccc2)c(=O)[nH]c1=O,inactive
5,COc1c(Cl)cc(C(=O)Nc2cc(-c3nc4ccccc4[nH]3)ccc2C)cc1Cl,"inconclusive: 39.8 µM [activator, partial curve, poor fit]"
6,CCOC(=O)c1cc(-c2ccc(/C=C3/C(=O)NC(=O)C(C#N)=C3C)o2)ccc1Cl,"inconclusive: 28.2 µM [activator, partial curve, poor fit]"
7,COc1ccc(-n2c(SCC(=O)Nc3nccs3)nc3sc4c(c3c2=O)CCN(C)C4)cc1,active: 28.2 µM
8,CC1(C)Cc2ccccc2C(CSc2ccccc2C(=O)O)=N1,"inconclusive: 28.2 µM [activator, partial curve, poor fit]"
9,O=C(Nc1ccc2c(c1)CCC2)Nc1ccccc1Cl,"inconclusive: 50.1 µM [activator, single point]"
10,CCC(C(=O)OCC(=O)Nc1ccc(SC(F)F)cc1)c1ccccc1 (configuration not stated),inactive
11,COc1ccccc1NC(=O)c1c(-c2ccc(C)cc2)nnc2ccccc12,inactive
12,COC(=O)[C@@H]1N=C(c2ccc(OC)cc2)O[C@]12C(=O)N(Cc1cn(-c3ccccc3)nn1)c1cccc(Cl)c12,inactive
13,Cc1c(NS(=O)(=O)c2cccs2)c(=O)n(-c2ccccc2)n1C,"inconclusive: 3.98 µM [activator, full curve]"
14,Cc1nc(-c2ccc(S(=O)(=O)Nc3cc(F)ccc3F)cc2)co1,inactive
15,Cc1ccc(N=c2oc3cc(O)ccc3cc2C(N)=O)cc1,inactive
16,COC(=O)C1=C(C)N(CCCCCC(=O)O)C(=O)NC1c1ccccc1 (configuration not stated),"inconclusive: 50.1 µM [activator, single point]"
17,Cc1cccc(CSc2cn(CC(=O)N3CCOCC3)c3ccccc23)c1,"inconclusive: 50.1 µM [activator, single point]"
18,COc1cccc(NC(=O)Cn2nc(N3CCN(c4ccccc4)CC3)ccc2=O)c1,"inconclusive: 31.6 µM [activator, single point]"
19,Cc1ccc(Cl)cc1-n1ncc2c(NCCc3ccccc3)ncnc21,inactive
20,COc1ccc(-c2nn(-c3ccccc3)cc2C(=O)N(C)CC(=O)Nc2cccc(F)c2)cc1,"inconclusive: 25.1 µM [activator, partial curve, poor fit]"
21,O=C(COC(=O)/C=C/c1cccc(Cl)c1)Nc1cccc(S(=O)(=O)NC2=NCCC2)c1,"inconclusive: 28.2 µM [activator, partial curve, poor fit]"

row,Compound,Potency
1,O=C(CSc1nnc(-c2ccccn2)n1-c1ccccc1)Nc1ccccc1-c1ccccc1,"inconclusive: 20 µM [activator, partial curve, poor fit]"
2,C[C@H](O)[C@@H]1CN2CCc3c([nH]c4ccc(-c5ccc6c(c5)OCO6)cc34)[C@@H]2C[C@@H]1N(C)C(=O)NC1CCCCC1,"inconclusive: 28.2 µM [activator, partial curve, poor fit]"
3,CNc1nc(-c2ccccc2)[n+](-c2ccc(C)cc2)s1,inactive
4,O=[N+]([O-])c1ccc(Nc2nc(N/N=C/c3cccc(F)c3)nc(N3CCCC3)n2)cc1,"inconclusive: 28.2 µM [activator, partial curve, poor fit]"
5,CC1=C(C(=O)N(C)C)CC(CC(=O)NC(c2ccccc2)c2ccccc2)C(=O)N1CCC1=CCCCC1 (configuration not stated),"inconclusive: 35.5 µM [activator, single point]"
6,COc1ccccc1C1CC(c2ccc(NS(C)(=O)=O)cc2)=NN1C(=O)c1ccccc1 (configuration not stated),"inconclusive: 28.2 µM [activator, single point]"
7,COc1cccc(CNC(=O)c2c(C)nn(-c3ccc(F)cc3)c2-n2cccc2)c1,inactive
8,COc1cccc(/C=N/NC(=O)c2ccncc2)c1OC(=O)c1ccc(Br)cc1,"inconclusive: 28.2 µM [activator, single point]"
9,CCOC(=O)c1sc2ccccc2c1S(=O)(=O)Nc1ccc(OC)c(Cl)c1,"inconclusive: 20 µM [activator, partial curve, poor fit]"
10,COc1ccc(NC(=O)C2Cc3c(-c4ccc(Cl)cc4)ccnc3O2)cc1 (configuration not stated),"inconclusive: 31.6 µM [activator, single point]"
11,COc1ccc(OC)c(CCNC(=O)c2c(C)oc3ncn(CC(C)C)c(=O)c23)c1,"inconclusive: 31.6 µM [activator, single point]"
12,O=C(CN1CCOCC1)Nc1ccc([N+](=O)[O-])cc1,"inconclusive: 2 µM [activator, full curve]"
13,CCOC(=O)c1cccc(OS(=O)(=O)Cc2ccccc2)c1,inactive
14,Cc1cc(C(=O)OCCN2C(=O)c3ccccc3C2=O)c2ccccc2n1,active: 15.8 µM
15,CCCCc1ccc(-n2nc3ccc(NC(=O)c4cc5ccccc5o4)cc3n2)cc1,"inconclusive: 28.2 µM [activator, single point]"
16,CC(=O)c1ccc([C@H](O)[C@H](C)C(=O)N(C)c2ccccc2)cc1,inactive
17,COc1ccc(-n2c(=O)c3c4c(sc3n(Cc3ccc(F)cc3)c2=O)CN(C(C)=O)CC4)c(OC)c1,"inconclusive: 12.6 µM [activator, partial curve, poor fit]"
18,CCC(CC)C(=O)N1c2ccccc2C(C)(c2ccccc2)CC1(C)C (configuration not stated),inactive
19,Cc1ccc2c(c1C)NC(=O)CC(c1ccccc1O)=N2,inactive
20,O=C(CCN1C(=O)c2ccccc2C1=O)C1=NN[C@@H]2C(=O)N(c3ccc4c(c3)OCCO4)C(=O)[C@H]12,"inconclusive: 22.4 µM [activator, partial curve, poor fit]"
21,COc1ccccc1CNC(=O)CSc1nc(-c2ccc(OC)c(OC)c2)cc(C(F)(F)F)n1,"inconclusive: 28.2 µM [activator, partial curve, poor fit]"

row,Compound,Potency
1,COC(=O)c1sccc1S(=O)(=O)N(CC(=O)Nc1cc(C)ccc1C)c1ccc(C)c(C)c1,"inconclusive: 44.7 µM [activator, single point]"
2,O=C(Nc1ccc(S(=O)(=O)N2CCCCC2)cc1)c1ccc(CN2CCc3ccccc3C2)cc1,"inconclusive: 50.1 µM [activator, single point]"
3,COc1cccc(N2CCN(CC(=O)NCc3ccccc3C)CC2)c1,inactive
4,CCOc1ccc(CCNC(=O)c2ccc(-n3c(C)cc4c3CCCC4)cc2)cc1OCC,"inconclusive: 5.01 µM [activator, full curve]"
5,CCOCCc1nnc(NC(=O)C(=O)c2cc(C)n(-c3ccc(C)c(C)c3)c2C)s1,"inconclusive: 22.4 µM [activator, partial curve, poor fit]"
6,COc1ccc2c(c1)OC[C@H]1[C@H]2N2C(=O)c3ccc(C)cc3NC(=O)[C@@]2(C)[C@H]1c1ccccc1,"inconclusive: 31.6 µM [activator, single point]"
7,CCCC[C@H]1C2CC(OC(=O)Nc3cccc(F)c3)C(C2)[C@H]2CCCCN21 (some centres not stated),inactive
8,CC(NC(=O)c1ccc2c(c1)OCO2)c1cccc(C(F)(F)F)c1 (configuration not stated),"inconclusive: 0.891 µM [activator, full curve, poor fit]"
9,CCCc1ccc(OCc2ccc(C(=O)N3CCSCC3)o2)cc1,"inconclusive: 44.7 µM [activator, single point]"
10,C=CCn1c(SCC(=O)NC(=O)c2cccn2C)nc2ccccc2c1=O,"inconclusive: 44.7 µM [activator, single point]"
11,COC(=O)[C@]12C[C@H](CC(=O)NCCCCc3ccccc3)C(=O)N(CCc3ccc(OC)c(OC)c3)C1=C[C@H](C1CCCC1)O[C@@H]2C,"inconclusive: 15.8 µM [activator, partial curve, poor fit]"
12,COc1ccc(-c2oc3cc(OC)c(O)c(OC)c3c(=O)c2OC)cc1O,inactive
13,COc1ccc(OC)c(NC(=O)c2cn(C)c(=O)c3cc(OC)c(OC)cc23)c1,"inconclusive: 50.1 µM [activator, single point]"
14,CCOC(=O)Cn1c(=O)n(-c2cccc(Cl)c2)c2nc(-c3ccccc3Cl)nc(C(N)=O)c21,"inconclusive: 15.8 µM [activator, partial curve, poor fit]"
15,C=CCn1c(SCC(=O)Nc2cccc(S(=O)(=O)N(C)c3ccccc3)c2)nnc1C1CC1,"inconclusive: 25.1 µM [activator, partial curve]"
16,Cc1ccc2c(CC(=O)Nc3ccc(S(=O)(=O)N4CCCCC4C)cc3)coc2c1C (configuration not stated),"inconclusive: 14.1 µM [activator, partial curve, poor fit]"
17,COc1cccc(-c2cc(NC=O)c3ncc(-c4cccc(C(=O)N(C)C)c4)n3c2)c1,"inconclusive: 50.1 µM [activator, single point]"
18,Cc1cccc(Nc2nc(-c3ccccn3)cs2)n1,"inconclusive: 11.2 µM [activator, single point]"
19,CCSc1ccccc1C(=O)N1CCN(c2ccc([N+](=O)[O-])cc2)CC1,"inconclusive: 25.1 µM [activator, single point]"
20,CC(Oc1ccc(Br)cc1)C(=O)Nc1ccncc1 (configuration not stated),inactive
